This note sets out measurements from the supplement of paper PMC4723716.

± gives the uncertainty stated by the source. In all, about 9,900 compounds were measured (“viability index relative to DMSO control”: median about 1, lowest 2% from about 0.85 on). Some of the results follow.

This test concerns Plasmodium falciparum NF54 stage V gametocytes. Briefly: viability index relative to DMSO control (fraction); higher = less gametocyte killing. Particulars: 2.5 µM, library set: Broad Institute DOS, incubation time: 72 h. The procedure, abridged:
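Compound at 2.5 µM was incubated for 72 hr at 37°C under low oxygen with P. falciparum NF54 stage V gametocytes (0.75% gametocytemia, 1.25% hematocrit, 10 µl, serum-free screening medium) in 1,536-well plates. Staining used 3 µl of 2.5 µM MitoTracker Red CMXRos plus 0.13% saponin for one to two hours, and red particles of 20–70 µm2 were counted in one imaged field per well. Each viability index is that count relative to the plate mean of solvent-only wells.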
Compound `O=C(C[C@H]1CC[C@@H]2[C@H](COC[C@@H](O)CN2Cc2ccc(Oc3ccccc3)cc2)O1)N1CCN(c2ccccc2)CC1` registered a viability index of 1.06 ± 0.068.

In turn, `O=C(Nc1ccccc1F)N1CCCCN2[C@H](CO)[C@@H](c3ccc(/C=C/c4ccccc4)cc3)[C@H]2C1` displayed a viability index of 0.859 ± 0.037. In the case of `CCC(=O)N1C[C@]2(CCN(Cc3ccc(Cl)cc3)CC2)c2c([C@H]1CO)n(C)c1cc(OC)ccc21` it was 0.983 ± 0.091; in that of `C[C@@H]1CN([C@H](C)CO)C(=O)c2cc(NC(=O)Nc3cccc4ccccc34)ccc2O[C@@H](C)CCCCO[C@H]1CN(C)S(=O)(=O)c1cn(C)cn1`, 1.04 ± 0.11. Turning to `CN(C)C(=O)c1ccc(-c2ccc([C@@H]3[C@H]4CNC[C@@H]3N4C(=O)Nc3cc(F)ccc3F)cc2)cc1`, the viability index is 1.11 ± 0.073.

Turning to `C[C@@H]1CCCCO[C@H](CN(C)Cc2ccc(C(=O)O)cc2)[C@@H](C)CN([C@@H](C)CO)C(=O)c2cc(N(C)C)ccc2O1`, the viability index was 1.07 ± 0.11. `O=C(C[C@H]1CC[C@H]2[C@@H](COC[C@@H](O)CN2Cc2ccc(F)cc2)O1)NCCc1ccccc1`: the viability index stood at 1.04 ± 0.062. As for `CN(C)CC(=O)N1[C@H](C#N)[C@@H](c2ccc(-c3cccc(C(=O)N(C)C)c3)cc2)[C@H]1CO`, the viability index was 1.06 ± 0.053. As for `CN1C(=O)c2cc(NS(C)(=O)=O)ccc2OC[C@@H]2O[C@@H](CC(=O)N3CCOCC3)CC[C@H]21`, the viability index is 1.06 ± 0.025.

On to `O=S(=O)(c1ccc(-c2ccccc2)cc1)N1C[C@@H]2N[C@H](C1)[C@@H]2c1ccc(-c2ccncc2)cc1`, for which the viability index amounted to 1.072 ± 0.0057. In the case of `C[C@@H]1CN([C@H](C)CO)C(=O)c2ccccc2-c2ccccc2CO[C@@H]1CN(C)C(=O)Nc1cccc(C(F)(F)F)c1` it was 0.9998 ± 0.0068; in that of `O=C(Nc1ccccc1)[C@H]1[C@H](CO)[C@H]2Cn3c(ccc(C4=CCCCC4)c3=O)[C@H]2N1Cc1cocn1`, 1.05 ± 0.012; in that of `COc1ccccc1-c1ccc2c(c1)[C@H]1[C@H](CCN1C(=O)C1CCC1)[C@@H](CO)N2`, 0.865 ± 0.097. For `C/C=C/c1ccc([C@H]2[C@@H](CO)N3C(=O)CN(S(=O)(=O)c4ccccc4)C[C@H]23)cc1` the value was 0.975 ± 0.12; for `C[C@@H]1CN([C@@H](C)CO)C(=O)CCCn2nncc2CO[C@H]1CN(C)Cc1ccc2c(c1)OCCN2C`, 0.967 ± 0.0097. The compound `CCCNC(=O)N1CC2(C1)[C@H](c1ccccc1)[C@H](CO)N2C(=O)c1cccnc1` gave a viability index of 1.08 ± 0.065. As to `CC(C)NC(=O)Nc1cccc2c1O[C@H](CN(C)C(=O)Nc1ccccc1)[C@@H](C)CN([C@@H](C)CO)C2=O`, the viability index was found to be 1.09 ± 0.07. In the case of `CN1C(=O)c2cc(NC(=O)Cc3cccs3)ccc2OC[C@H]2O[C@H](CC(=O)NCCCN3CCOCC3)CC[C@H]21` it was 1.11 ± 0.039; in that of `N#C[C@@H]1[C@@H](c2ccccc2-c2ccccc2F)[C@H](CO)N1C(=O)C1CCC1`, 1.18 ± 0.055; in that of `COCC(=O)N1C[C@]2(CCN(Cc3cccnc3)CC2)c2c([C@@H]1CO)n(C)c1cc(OC)ccc21`, 1.07 ± 0.069.

The compound `COc1ccc2c3c([nH]c2c1)[C@H](CO)NC[C@]31CCN(CC1)C(=O)C1CCOCC1` displayed a viability index of 0.98 ± 0.08. `C[C@H]1CN([C@@H](C)CO)C(=O)c2cccc(NS(=O)(=O)c3ccc(F)cc3)c2O[C@@H]1CN(C)Cc1ccc(Cl)c(Cl)c1` gave a viability index of 1.05 ± 0.019. Compound `COc1ccccc1NC(=O)N1C[C@H]2[C@@H](c3ccccc31)[C@@H](CO)N2Cc1ccc2c(c1)OCO2` came in with a viability index of 1.02 ± 0.048.

Turning to `Fc1ccccc1CN1[C@@H]2CNC[C@H]1[C@H]2c1ccc(-c2ccccc2)cc1`, the viability index amounted to 1.1 ± 0.044. With `C/C=C/c1ccccc1[C@H]1[C@@H](C#N)N(C(=O)NC2CCCCC2)[C@H]1CO`, the viability index was determined as 1.11 ± 0.092. For `COc1ccccc1-c1ccc2n(c1=O)C[C@H]1[C@H](CO)[C@@H](C(=O)N3CCOCC3)[C@@H]2N1CC1CC1` the value was 1.09 ± 0.03; for `CCC(=O)N1C[C@@H](C)[C@@H](OC)CN(C)C(=O)c2cc(NC(=O)Nc3ccc(Cl)cc3)ccc2OC[C@H]1C`, 1.03 ± 0.065. `C[C@@H]1C(=O)N[C@H](c2ccccc2)C/C=C/C[C@H](C)Oc2ccccc2C(=O)N1C.C[C@@H]1C(=O)N[C@H](c2ccccc2)C/C=C\C[C@H](C)Oc2ccccc2C(=O)N1C` showed a viability index of 1.01 ± 0.044. For `O=C1[C@H](Cc2ccc(F)cc2)CCn2cc(nn2)COC[C@H]2CCCN12` the value was 0.995 ± 0.016. With `CN1C(=O)c2cc(NC(=O)Nc3ccc(Cl)cc3)ccc2OC[C@H]2O[C@@H](CC(=O)NCCN3CCCCC3)CC[C@@H]21`, the viability index turned out to be 0.994 ± 0.088. In the case of `Cc1cccc(S(=O)(=O)N2C[C@@H]3[C@H](c4ccccc42)[C@H](CO)N3CC2CCCC2)c1`, the viability index is 0.949 ± 0.011. In turn, `COCCNC(=O)C[C@@H]1C[C@@H]2c3cc(NC(=O)CN(C)C)ccc3O[C@@H]2[C@@H](CO)O1` registered a viability index of 1.06 ± 0.061. The compound `COc1ccc(C[C@H]2CCn3cc(nn3)COC[C@H](c3ccccc3)NC2=O)cc1` came in with a viability index of 1.1 ± 0.046.

On to `CCC(=O)Nc1ccc2c(c1)C(=O)N(C)C[C@@H](OC)[C@H](C)CN(Cc1nccs1)[C@@H](C)CO2`, for which the viability index was determined as 1.16 ± 0.079. For `CCS(=O)(=O)Nc1ccc2c(c1)C(=O)N(C)[C@H]1CC[C@H](CC(=O)N[C@H]3CCN(Cc4ccccc4)C3)O[C@@H]1CO2` the value was 1.131 ± 0.0043; for `COc1cccc(CN2C[C@]3(CN(CC4CCOCC4)C3)c3c([nH]c4cc(OC)ccc34)[C@@H]2CO)c1`, 0.937 ± 0.035. `CN(C)C(=O)c1ccc(-c2ccc([C@H]3[C@@H]4CNC[C@H]3N4)cc2)cc1`: the viability index came out at 1.1171 ± 0.00098. Consider `O=C1N[C@H](c2ccccc2)COCc2cnnn2CC[C@H]1Cc1ccc(C(F)(F)F)cc1`, for which the viability index was found to be 1.03 ± 0.049. With `COc1ccc2c3c([C@@H](CO)N(Cc4ccccc4OC)C[C@]33CN(C)C3)n(C)c2c1`, the viability index amounted to 0.9572 ± 0.002. In the case of `O=S(=O)(c1ccccc1)N1CC2(C1)[C@@H](c1ccccc1)[C@@H](CO)N2CCC(F)(F)F` it was 1.09 ± 0.08; in that of `CCCNC(=O)N1C[C@]2(CN(C2)C(=O)CN(C)C)c2c([C@H]1CO)n(C)c1cc(OC)ccc21`, 1.036 ± 0.0069.

With `COc1ccccc1NC(=O)N1C[C@H](O)COC[C@H]2O[C@H](CC(=O)NCCc3ccncc3)CC[C@@H]21`, the viability index is 1.08 ± 0.062.

Turning to `Cc1ccccc1-c1ccc([C@@H]2[C@H](CO)N3C(=O)CN(C(=O)NC4CCCC4)C[C@@H]23)cc1`, the viability index was found to be 1.03 ± 0.037. With `COc1ccc2c3c([nH]c2c1)[C@H](CO)N(Cc1ccccc1Cl)C[C@]31CN(C1)C(=O)C1CC1`, the viability index is 0.971 ± 0.052. The compound `C/C=C/c1ccc([C@H]2[C@@H](CNC(=O)NC(C)C)N(C(=O)C3CC3)[C@H]2CO)cc1` returned a viability index of 1.064 ± 0.0069. As for `N#Cc1ccc(-c2ccc3c(c2)[C@@H]2[C@@H](CCN2C(=O)C2CCCCC2)[C@H](CO)N3)cc1`, the viability index was 0.918 ± 0.11. Turning to `CN1[C@@H]2c3ccc(/C=C/c4ccccc4)c(=O)n3C[C@H]1[C@H](CO)[C@H]2C(=O)NC1Cc2ccccc2C1`, the viability index was 1.081 ± 0.0019. In the case of `COc1ccccc1S(=O)(=O)N(C)C[C@@H]1OCc2cn(nn2)CCCC(=O)N([C@@H](C)CO)C[C@H]1C` it was 1.03 ± 0.038. The compound `C[C@@H]1C(=O)N[C@@H](c2ccc3c(c2)OCO3)C/C=C/C[C@H](C)Oc2ccccc2C(=O)N1C.C[C@@H]1C(=O)N[C@@H](c2ccc3c(c2)OCO3)C/C=C\C[C@H](C)Oc2ccccc2C(=O)N1C` registered a viability index of 0.979 ± 0.08. In the case of `COc1ccccc1-c1cnc2c(c1)C(=O)N([C@H](C)CO)C[C@H](C)[C@@H](CN(C)C(=O)CC1CC1)O2` it was 1.03 ± 0.047. Compound `C[C@H]1CN([C@@H](C)CO)S(=O)(=O)c2ccc(-c3cccc(C#N)c3)cc2O[C@@H]1CN(C)C(=O)c1ccccc1` yielded a viability index of 0.97 ± 0.029.

`O=C(C[C@@H]1C[C@H]2c3cc(NC(=O)CC4CC4)ccc3O[C@H]2[C@@H](CO)O1)NCC1CC1` gave a viability index of 1.077 ± 0.0022. For `O=C(C[C@H]1CC[C@H](NC(=O)C2CCOCC2)[C@@H](CO)O1)NCC1CCCCC1` the value was 1.026 ± 0.0015. `C[C@H]1C/C=C/C[C@H](c2ccccc2)NC(=O)[C@H](C)N(C)C(=O)c2ccccc2O1.C[C@H]1C/C=C\C[C@H](c2ccccc2)NC(=O)[C@H](C)N(C)C(=O)c2ccccc2O1` registered a viability index of 1.06 ± 0.015. In turn, `O=C(C[C@@H]1CC[C@@H]2[C@H](COC[C@H](O)CN2CC2CCOCC2)O1)NCC1CCCCC1` registered a viability index of 1.07 ± 0.04. `C[C@@H]1CN([C@H](C)CO)C(=O)c2c(c3ccccc3n2C)-c2ccccc2CO[C@H]1CN(C)C(=O)[C@@H](Cc1ccccc1)N(C)C`: the viability index was found to be 1.14 ± 0.11. For `C[C@H](CO)N1C[C@H](C)[C@@H](CN(C)S(=O)(=O)c2ccc(Cl)cc2)Oc2ccc(NC(=O)Cn3cnnn3)cc2CC1=O` the value was 1.04 ± 0.033; for `OC[C@@H]1[C@H](c2ccc(-c3ccc(F)cc3)cc2)[C@H](CNC2CCCC2)N1CCC(F)(F)F`, 0.837 ± 0.1. Take `COc1ccc(C#Cc2ccc([C@H]3[C@@H](CO)N4CCCCN(C)C[C@@H]34)cc2)cc1`: the viability index amounted to 1.039 ± 0.0014. The compound `COc1cccc(CNC(=O)C[C@H]2CC[C@H]3[C@@H](COc4ccc(NS(=O)(=O)c5ccccc5F)cc4C(=O)N3C)O2)c1` had a viability index of 1.04 ± 0.033. In turn, `CO[C@@H]1CN(C)C(=O)c2cc(NC(=O)Nc3ccc4c(c3)OCO4)ccc2OC[C@@H](C)N(C(C)=O)C[C@H]1C` returned a viability index of 1.03 ± 0.015. Compound `O=C(NCC[C@H]1CC[C@@H](NC(=O)C2CCOCC2)[C@H](CO)O1)c1cc(Cl)cc(Cl)c1` showed a viability index of 1.06 ± 0.053.

Regarding `CN1CCN(C(=O)C[C@H]2CC[C@H]3[C@@H](COC[C@H](O)CN3Cc3cccc(-c4ccncc4)c3)O2)CC1`, the viability index worked out at 0.988 ± 0.17. `COCC(=O)N1CC[C@@]2(CC1)CN[C@@H](CO)c1c2c2ccc(OC)cc2n1C` showed a viability index of 0.987 ± 0.04.

`O=C(C[C@@H]1C[C@H]2c3cc(NS(=O)(=O)c4ccc(F)cc4)ccc3O[C@H]2[C@H](CO)O1)NCc1cccnc1` had a viability index of 1.02 ± 0.045. Turning to `Cc1noc(C)c1NC(=O)Nc1ccc2c(c1)C(=O)N([C@H](C)CO)C[C@H](C)[C@@H](CN(C)S(=O)(=O)c1cccs1)OCCCC[C@H](C)O2`, the viability index is 1.083 ± 0.0078. Compound `C/C=C/c1ccc([C@@H]2[C@H](CO)N(Cc3cncnc3)C23CN(C(=O)COC)C3)cc1` showed a viability index of 1.08 ± 0.022. `OC[C@@H]1[C@@H](c2ccccc2)C2(CN(CC3CC3)C2)N1Cc1ccc(F)cc1` showed a viability index of 0.984 ± 0.077. For `Cc1noc(C)c1S(=O)(=O)Nc1ccc2c(c1)C(=O)N([C@@H](C)CO)C[C@@H](C)[C@H](CN(C)C(=O)Nc1cccc3ccccc13)OCCCC[C@@H](C)O2` the value was 1.01 ± 0.068.
